# Results reported in article PMC4336329 (PLoS ONE, 2015).
# The campaign covered roughly 310,000 compounds. About 14,000 (4.5%) showed an effect of 50% or more. Effects have a minus sign here. This is one part of the list.
# Target: human ether-à-go-go-related gene (hERG) potassium channel (human, UniProt Q12809)
# Assay: primary screen, population patch clamp on CHO cells stably expressing hERG
# 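Also: peak tail current of the secondary pulse compared with the same well before compound.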
# Chain of human ether-à-go-go-related gene (hERG) potassium channel (Q12809 whole entry, looked up): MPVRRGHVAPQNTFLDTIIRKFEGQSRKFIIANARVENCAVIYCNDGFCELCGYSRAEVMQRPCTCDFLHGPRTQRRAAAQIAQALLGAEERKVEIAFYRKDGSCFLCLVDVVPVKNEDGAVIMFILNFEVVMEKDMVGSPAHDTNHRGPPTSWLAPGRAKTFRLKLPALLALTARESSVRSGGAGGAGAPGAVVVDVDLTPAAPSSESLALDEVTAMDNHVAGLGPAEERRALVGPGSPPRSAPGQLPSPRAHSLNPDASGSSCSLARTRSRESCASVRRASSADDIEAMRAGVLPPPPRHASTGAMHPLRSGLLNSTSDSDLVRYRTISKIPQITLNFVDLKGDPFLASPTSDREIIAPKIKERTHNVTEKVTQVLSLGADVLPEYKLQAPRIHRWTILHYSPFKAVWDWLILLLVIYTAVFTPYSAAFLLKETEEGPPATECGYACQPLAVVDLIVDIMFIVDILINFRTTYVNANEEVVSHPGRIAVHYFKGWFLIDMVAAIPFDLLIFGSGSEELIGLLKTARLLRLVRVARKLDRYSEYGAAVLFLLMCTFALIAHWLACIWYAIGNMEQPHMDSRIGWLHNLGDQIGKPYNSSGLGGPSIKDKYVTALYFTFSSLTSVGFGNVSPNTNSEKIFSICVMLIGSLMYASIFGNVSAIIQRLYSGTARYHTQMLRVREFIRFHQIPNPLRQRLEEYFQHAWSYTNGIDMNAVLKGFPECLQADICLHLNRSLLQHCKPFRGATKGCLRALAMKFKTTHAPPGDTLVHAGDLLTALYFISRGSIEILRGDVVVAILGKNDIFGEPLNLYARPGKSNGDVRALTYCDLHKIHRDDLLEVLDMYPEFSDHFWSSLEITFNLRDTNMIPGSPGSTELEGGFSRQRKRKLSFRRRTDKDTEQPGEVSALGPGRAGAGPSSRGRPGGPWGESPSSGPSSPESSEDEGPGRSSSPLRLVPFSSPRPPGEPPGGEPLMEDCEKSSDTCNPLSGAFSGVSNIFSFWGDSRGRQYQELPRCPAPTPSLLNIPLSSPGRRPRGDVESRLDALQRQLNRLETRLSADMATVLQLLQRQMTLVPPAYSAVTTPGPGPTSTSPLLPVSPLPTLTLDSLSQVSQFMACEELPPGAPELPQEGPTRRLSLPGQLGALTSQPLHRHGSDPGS
row,Compound,"hERG current change (%, negative = inhibition) at 10uM"
1,C=CCSc1nc2c(C(=O)OCC)nnn2c2ccccc12,10.5%
2,C/C(=N/O)c1no[n+]([O-])c1/C(C)=N\O,-6.92%
3,Cc1occc1C(=O)N(C)CC1CCCN(CCc2ccccc2F)C1 (stereo not shown),-51.1%
4,COc1ccccc1N1CCN(C(=O)c2ccc(CS(=O)(=O)c3ccccc3OC)o2)CC1,-7.39%
5,CCc1ccc(NC(=O)Cn2nnc(C(=O)NCCc3ccc(OC)c(OC)c3)c2N)cc1,11.6%
6,CCCc1nnc(NC(=O)c2ccc(N3C(=O)C4C5C=CC(C5)C4C3=O)cc2)s1 (stereo not shown),5.65%
7,COc1ccc2ncc(OC(C)=O)cc2c1,17.4%
8,CCOC(=O)c1[nH]c(C)c(C(=O)OCC(=O)N(C)C2CCS(=O)(=O)C2)c1C (stereo not shown),29%
9,Cn1nc(C(F)(F)F)c(-c2cccc(C(F)(F)F)c2)c1NC(=O)c1ccco1,-66.6%
10,CCCn1nnc(NC(=S)NC(=O)CC)n1,9.28%
11,COc1cc(C(=O)Nc2cc(C(F)(F)F)ccc2N2CCOCC2)ccc1O,-26.6%
12,CCCN(CC(=O)Nc1ccccc1OC)Cc1c(O)ccc2ccccc12,7.41%
13,O=C(NCc1nnc(SCC(=O)N2CCCC2)o1)c1ccccc1,20.8%
14,COc1cccc(CNC(=O)COC(=O)CNC(=O)c2ccc(-c3ccccc3)cc2)c1,8.82%
15,CC(C)Cc1nnc(NC(=O)c2ccc(N3CCCC3=O)cc2)s1,2.3%
16,COP(=O)(OC)C(Nc1ccc(C)cc1)c1ccc([N+](=O)[O-])cc1 (stereo not shown),-9.95%
17,Cc1cc(C)c(C(N)=O)c(SCC(=O)c2ccc(Cl)cc2)n1,-3.74%
18,COc1cc(Cl)c(C)cc1NC(=O)CSc1sc2c(O)cc(=O)[nH]c2c1C#N,11%
19,COc1cc(C(=O)NCC(=O)n2nc(C)cc2C)cc(OC)c1OC,9.83%
20,CS(=O)(=O)N1N=C(c2ccc3nccnc3c2)CC1c1ccccc1 (stereo not shown),-7.62%
21,C=CCSC1=C(C#N)C(c2ccccc2OC)CC(=O)N1 (stereo not shown),-2.19%
22,O=C(COC(=O)c1ccccc1SCC(=O)N1CCCC1)NC1CCS(=O)(=O)C1 (stereo not shown),-5.66%

row,Compound,"hERG current change (%, negative = inhibition) at 10uM"
1,CCCc1[nH]nc2c1C(c1c(C)nn(-c3ccccc3)c1Cl)C(C#N)=C(N)O2 (stereo not shown),-3.86%
2,Cc1ccc(C(=O)N2CCn3c(C)ccc3C2C)cc1 (stereo not shown),-2.41%
3,COc1ccc(C(=O)CC(=O)C(=O)NCCc2cccc(C)c2)cc1,7.31%
4,Cc1cc(NC(=O)CSc2nc3ccccc3n2CC(C)C)no1,19.2%
5,O=C(Nc1ccccc1)c1cc2ccccc2o1,-7.55%
6,NC(=O)C1CC(=O)N(c2ccc(OCC(=O)NCc3ccccc3)cc2)C1 (stereo not shown),16.6%
7,CCCc1ccc(-c2cc(C(=O)Nc3ccc([N+](=O)[O-])cn3)c3ccccc3n2)cc1,5.62%
8,CC(C)C(=O)NC(NC(=S)Nc1ccc(S(N)(=O)=O)cc1)C(Cl)(Cl)Cl (stereo not shown),12.8%
9,Cc1ccc(-n2nnnc2SCc2nc3sc(C)c(C)c3c(=O)[nH]2)cc1,-11.7%
10,COc1cccc(/C=N/NC(=O)c2cc3c(OC)ccc(OC)c3[nH]2)c1O,31.1%
11,CCN(C(=O)COC(=O)CNC(=O)c1cccc(C)c1)c1c(N)n(Cc2ccccc2)c(=O)[nH]c1=O,14.3%
12,Cc1ccc(OC(=O)c2ccc(S(=O)(=O)N(C)C)cc2)c(-n2nc3ccccc3n2)c1,3.83%
13,C[C@H](NC(=O)c1nc[nH]c1C(=O)N1CCN(c2ccccc2)CC1)C(=O)OC(C)(C)C,2%
14,COc1ccc2c(c1)CC(C)C/C2=N\NC(=O)c1ccco1 (stereo not shown),27.5%
15,CCCCCCC(=O)N(O)C1CC(=O)N(Cc2ccccc2)C1=O (stereo not shown),-1.37%
16,O=C(N/N=C/c1ccc(Cl)cc1)C(=O)N1CCCCCC1,-5%
17,Cc1cc(N)n2nc(C(F)(F)F)nc2n1,17.4%
18,COc1ccc2cc(CCNC(=O)CC(C)(C)C)c(=O)[nH]c2c1,-10.2%
19,Cn1c(NCc2ccco2)nc2c1c(=O)n(Cc1ccc(Cl)c(Cl)c1)c(=O)n2C,-15.6%
20,Cc1ccc(/C=C/C(=O)N2CCN(c3cccc(C(F)(F)F)c3)CC2)cc1,4.97%
21,CC1(C)CC(=O)C=C(Nc2ccccc2F)C1,-8.1%
22,Cc1c(Cc2ccccc2)c(=O)oc2c(C)c(OCC(=O)NCc3ccccn3)ccc12,-5.56%

row,Compound,"hERG current change (%, negative = inhibition) at 10uM"
1,CN(Cc1ccco1)C(=O)C1CCN(c2nnc(-n3cccc3)s2)CC1,-46.6%
2,CCOC(=O)c1sc(C)c2c(=O)n(CCc3ccccc3)nnc12,9.94%
3,Cc1csc(NC(=O)C2CCCO2)n1 (stereo not shown),-1.48%
4,CCC1(CC)C(=O)NN(c2ccccc2)C1=O,2.36%
5,COc1ccc(S(=O)(=O)n2nc(OCc3cccs3)cc2N)cc1,-22.3%
6,NSc1nc(N)c2nc(-c3ccccc3)c(-c3ccccc3)nc2n1,4.96%
7,Cc1ccc(NC(=O)CN(C)CC(=O)Nc2ccc(F)c(Cl)c2)cc1.O=C(O)C(=O)O,-12.9%
8,O=C(NCc1ccc(Cl)cc1)C1CCCN(c2ncnc3c2nc2n3CCCCC2)C1 (stereo not shown),-55.4%
9,C=CCn1c(SCC(=O)Nc2ccc(C(=O)O)cc2)nnc1-c1cccnc1,34.6%
10,N#C/C(=C\c1ccc(OCc2ccc(Br)cc2)cc1)C(=O)Nc1cccc(C(=O)O)c1,17.8%
11,Cc1ccc(C2(C)NC(=O)N(CC(=O)NC(=O)NC(C)C)C2=O)cc1 (stereo not shown),-2.84%
12,CN(C)c1ccc(S(=O)(=O)N2CCCCC2)cc1NC(=O)CCNC(=O)c1ccco1,-9.54%
13,O=C(CSCc1cccc(Cl)c1)Nc1ccccc1-c1ccccc1,-16.2%
14,Cc1cccc(NC(=O)COc2coc(CN3CCN(Cc4ccccc4)CC3)cc2=O)c1,-65%
15,O=C1NCC(COCc2ccco2)O1 (stereo not shown),10.8%
16,Clc1c(CSc2nc3ccccc3o2)nc2ccccn12,-20.4%
17,COCCN1C(=O)C(=O)/C(=C(/O)c2ccc(C)cc2)C1c1ccccn1 (stereo not shown),37.2%
18,Fc1ccc(N2CCN(C3CCC(c4ccccc4)CC3)CC2)cc1 (stereo not shown),-17.4%
19,CCOC(=O)c1nnc(-c2ccccc2)nc1Oc1ccc(Cl)cc1,-7.45%
20,CN1C(=O)N(C)C(=O)C2(Cc3ccccc3N3CCOCC32)C1=O (stereo not shown),-1.2%
21,CC(C)(C)CC(=O)OCC(=O)Nc1cc(C(C)(C)C)nn1-c1ccccc1,-20.2%
22,Cc1nnc(SCC(=O)N2CCOCC2)c2ccccc12,-5.92%

row,Compound,"hERG current change (%, negative = inhibition) at 10uM"
1,O=C(N/N=C/c1cccnc1)c1ccc2ccccc2c1O,17%
2,CC(C)CC1Nc2ncnc(N3CCN(c4ccccc4)CC3)c2N(Cc2ccccc2)C1=O.O=C(O)C(F)(F)F (stereo not shown),-5.53%
3,CN(Cc1ccccc1)C(=O)c1ccc(NC(=O)Cc2cccc(NC(=O)C3CCN(C(=O)C4CCC4)CC3)c2)cc1,5.07%
4,O=C(Nc1cc(Sc2nc3ccccc3s2)cc([N+](=O)[O-])c1)c1cccc(F)c1F,9.73%
5,COC(=O)[C@@H]1C[C@H]2CC[C@H](O)C[C@H]2N1Cc1ccccc1OS(=O)(=O)c1ccc(C)cc1,1.14%
6,CC(NC(=O)C1C(=O)N(CCO)C2(C)CC1c1ccccc1O2)c1ccccc1 (stereo not shown),-14.4%
7,CCOC(=O)C1CCN(C(=O)CC(C)S(=O)(=O)c2ccc3c(c2)NC(=O)CO3)CC1 (stereo not shown),11.8%
8,COc1ccc2c(c1)C1=NN(/C(C)=C/C(C)=O)C(c3ccc(F)cc3)C1CC2 (stereo not shown),-20.4%
9,CC(Oc1ccccc1F)C(=O)NNC(=O)C1CC(=O)N(c2ccc3c(c2)OCCO3)C1 (stereo not shown),4.38%
10,COc1cccc(-c2nnc3sc(-c4ccccn4)nn23)c1,-12.4%
11,Cc1cc(Cl)ccc1OCC(=O)OCC(=O)NC1CCS(=O)(=O)C1 (stereo not shown),-12.2%
12,COc1ccc(NC(=O)CN2C(=O)CC(C)S(=O)(=O)c3ccccc32)cc1 (stereo not shown),6.57%
13,CC(=O)C12CC(C)=C(C)CC1CC1C3CCC4=CC(=O)CCC4(C)C3CCC12C (stereo not shown),6.42%
14,Cc1nc2ncnn2c(C)c1CCC(=O)N1CCN(C(=O)c2ccco2)CC1,-3.45%
15,N#Cc1c(NCCN)nc(-c2ccco2)c2c1CCCC2,-47%
16,Cc1ccc2cc(C(c3nnnn3Cc3ccccc3)N3CCN(c4ccccc4)CC3)c(=O)[nH]c2c1 (stereo not shown),-16.2%
17,CCN(CC)CCCn1c2c(c(SCC(=O)Nc3cccc(C(C)=O)c3)nc1=O)CCC2,-59.4%
18,Cc1ccc(NC(=S)NNC(=O)c2ccc(N3CCOCC3)c([N+](=O)[O-])c2)cc1Cl,6.24%
19,COc1ccc(OCC(O)CNC(=O)Nc2ccc(Cl)cc2)cc1 (stereo not shown),6.64%
